Source: article PMC8118270
Like-named read-outs stand apart in the source and are kept apart here. Results are given in words; binding and its absence hold for the method and conditions named. Binding seen in cells or lysates may run through a third protein. Some entries that bind do so weakly or less than the wild type. For some assays here: Tags and fused reporters may be left off the sequences shown.

Sequences of proteins named here, by UniProt entry; tags and fusion partners are left off.
UniProt O18640: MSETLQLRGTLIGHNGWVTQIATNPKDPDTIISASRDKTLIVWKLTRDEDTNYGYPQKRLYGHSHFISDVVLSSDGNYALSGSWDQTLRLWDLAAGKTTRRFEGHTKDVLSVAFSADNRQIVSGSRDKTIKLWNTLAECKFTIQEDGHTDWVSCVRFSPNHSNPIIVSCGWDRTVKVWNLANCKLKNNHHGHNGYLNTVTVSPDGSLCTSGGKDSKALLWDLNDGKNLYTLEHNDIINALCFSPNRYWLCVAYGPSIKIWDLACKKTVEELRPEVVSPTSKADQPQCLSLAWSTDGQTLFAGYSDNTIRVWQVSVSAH
UniProt Q9VL06: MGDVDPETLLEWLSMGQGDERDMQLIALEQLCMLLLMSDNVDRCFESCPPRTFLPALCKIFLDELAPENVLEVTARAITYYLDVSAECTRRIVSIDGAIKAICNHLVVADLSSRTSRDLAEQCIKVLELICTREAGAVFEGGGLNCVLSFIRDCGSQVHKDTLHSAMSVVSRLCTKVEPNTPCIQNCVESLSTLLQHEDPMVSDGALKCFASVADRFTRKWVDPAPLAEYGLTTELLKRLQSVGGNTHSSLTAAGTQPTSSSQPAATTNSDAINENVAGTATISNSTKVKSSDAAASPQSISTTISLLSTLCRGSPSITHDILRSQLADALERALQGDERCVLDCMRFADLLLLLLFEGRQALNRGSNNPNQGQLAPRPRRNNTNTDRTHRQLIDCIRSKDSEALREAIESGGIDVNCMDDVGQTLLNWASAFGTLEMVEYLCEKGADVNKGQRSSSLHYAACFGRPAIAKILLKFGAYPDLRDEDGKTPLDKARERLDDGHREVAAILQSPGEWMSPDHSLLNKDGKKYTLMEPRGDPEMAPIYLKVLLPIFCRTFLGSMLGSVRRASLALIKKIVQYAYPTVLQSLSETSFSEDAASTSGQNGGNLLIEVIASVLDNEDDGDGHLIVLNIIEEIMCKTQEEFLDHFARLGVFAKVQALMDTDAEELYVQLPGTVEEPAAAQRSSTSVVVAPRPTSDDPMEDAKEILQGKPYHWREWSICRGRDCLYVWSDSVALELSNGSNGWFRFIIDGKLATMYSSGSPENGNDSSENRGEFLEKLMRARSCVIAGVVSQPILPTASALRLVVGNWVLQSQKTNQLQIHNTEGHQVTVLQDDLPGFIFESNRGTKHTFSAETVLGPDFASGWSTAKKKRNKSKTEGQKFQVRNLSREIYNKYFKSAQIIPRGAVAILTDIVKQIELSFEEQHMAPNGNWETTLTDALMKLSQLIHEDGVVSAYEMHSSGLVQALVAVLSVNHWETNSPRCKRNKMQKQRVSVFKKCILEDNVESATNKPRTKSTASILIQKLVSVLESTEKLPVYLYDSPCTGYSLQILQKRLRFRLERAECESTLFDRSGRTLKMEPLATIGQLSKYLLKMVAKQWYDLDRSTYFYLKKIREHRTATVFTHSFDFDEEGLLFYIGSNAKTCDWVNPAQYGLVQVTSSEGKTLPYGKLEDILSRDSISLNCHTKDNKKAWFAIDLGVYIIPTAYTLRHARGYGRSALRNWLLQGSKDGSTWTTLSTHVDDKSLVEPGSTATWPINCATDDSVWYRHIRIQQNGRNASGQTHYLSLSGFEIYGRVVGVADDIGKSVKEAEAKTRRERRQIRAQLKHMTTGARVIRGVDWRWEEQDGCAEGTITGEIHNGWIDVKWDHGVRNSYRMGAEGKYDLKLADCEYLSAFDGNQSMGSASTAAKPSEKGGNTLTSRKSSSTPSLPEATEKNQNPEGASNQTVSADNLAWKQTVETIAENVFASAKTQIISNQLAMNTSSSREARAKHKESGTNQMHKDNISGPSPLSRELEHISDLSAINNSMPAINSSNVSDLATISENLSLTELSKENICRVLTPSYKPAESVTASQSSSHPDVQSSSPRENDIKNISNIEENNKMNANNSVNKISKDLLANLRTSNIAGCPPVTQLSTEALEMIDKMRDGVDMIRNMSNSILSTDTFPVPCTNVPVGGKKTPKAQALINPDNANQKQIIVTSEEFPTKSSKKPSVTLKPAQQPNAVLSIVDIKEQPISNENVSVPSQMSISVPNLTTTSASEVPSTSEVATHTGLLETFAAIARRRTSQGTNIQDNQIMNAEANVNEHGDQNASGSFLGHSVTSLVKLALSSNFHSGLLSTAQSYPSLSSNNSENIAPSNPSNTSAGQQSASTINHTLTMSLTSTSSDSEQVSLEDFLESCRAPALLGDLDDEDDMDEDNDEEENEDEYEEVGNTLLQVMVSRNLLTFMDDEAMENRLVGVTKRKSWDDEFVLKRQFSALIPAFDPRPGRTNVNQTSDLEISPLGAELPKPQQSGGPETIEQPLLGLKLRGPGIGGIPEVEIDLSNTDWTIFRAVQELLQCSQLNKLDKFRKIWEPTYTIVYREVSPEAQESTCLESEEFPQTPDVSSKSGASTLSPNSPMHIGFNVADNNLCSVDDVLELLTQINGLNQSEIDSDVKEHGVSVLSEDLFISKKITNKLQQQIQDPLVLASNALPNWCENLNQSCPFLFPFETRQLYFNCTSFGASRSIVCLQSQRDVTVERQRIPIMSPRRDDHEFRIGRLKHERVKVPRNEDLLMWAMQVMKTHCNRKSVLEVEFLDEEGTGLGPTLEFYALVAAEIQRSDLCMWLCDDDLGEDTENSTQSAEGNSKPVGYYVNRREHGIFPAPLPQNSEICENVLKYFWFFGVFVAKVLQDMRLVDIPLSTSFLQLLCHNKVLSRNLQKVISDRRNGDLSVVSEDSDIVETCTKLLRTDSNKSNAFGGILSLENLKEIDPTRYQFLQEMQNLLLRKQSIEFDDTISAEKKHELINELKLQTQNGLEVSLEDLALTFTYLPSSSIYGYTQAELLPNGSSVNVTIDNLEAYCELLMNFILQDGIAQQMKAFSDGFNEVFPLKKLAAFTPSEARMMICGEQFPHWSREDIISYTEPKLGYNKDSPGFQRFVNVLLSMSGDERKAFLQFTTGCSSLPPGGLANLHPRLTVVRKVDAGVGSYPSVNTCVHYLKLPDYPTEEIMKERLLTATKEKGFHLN
UniProt P40417: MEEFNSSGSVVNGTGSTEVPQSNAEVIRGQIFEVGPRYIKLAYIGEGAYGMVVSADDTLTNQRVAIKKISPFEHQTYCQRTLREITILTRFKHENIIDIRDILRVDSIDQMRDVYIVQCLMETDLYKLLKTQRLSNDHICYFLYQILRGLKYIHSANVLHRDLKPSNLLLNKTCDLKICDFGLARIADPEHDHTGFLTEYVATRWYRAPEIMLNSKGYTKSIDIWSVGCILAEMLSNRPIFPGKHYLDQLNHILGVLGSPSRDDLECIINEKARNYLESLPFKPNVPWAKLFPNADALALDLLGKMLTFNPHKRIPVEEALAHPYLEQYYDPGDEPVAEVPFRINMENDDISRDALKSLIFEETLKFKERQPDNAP

What was measured:
[1] = biological target: GFP-tagged RACK1 (Receptor for activated C kinase 1) (Drosophila) (UniProt O18640); assay: co-IP; S2 cells co-expressing RACK1-GFP (or GFP) with the tagged partner; immunoprecipitation with anti-GFP (GFP beads, Chromotek), western blot against the partner's tag; lysis buffer 10 mM Tris-HCl pH 7.4, 150 mM NaCl, 0.5 mM EDTA, 0.5% NP-40
[2] = biological target: GFP-tagged RACK1 (Receptor for activated C kinase 1) (Drosophila) (UniProt O18640); assay: as above; remark: listed apart in the source

Row | Molecule | binding [1] | binding [2]
1 | Myc-tagged UFD4 (Ubiquitin fusion-degradation 4-like) (from UniProt Q9VL06 1-2727) | no binding | 
2 | FLAG-tagged ERK (from UniProt P40417 1-376) | binds | 
3 | 1864–2374 mCherry-tagged POE (domain or fragment, UniProt Q9VLT5 1864-2374) RIGSNEVRDSAGIGSYLPSHMSLLAGKKRSSLPVGQPVLTRKDSLTNERIAVLTKLLEPYRETLQHQDQWLLVVRCILEYFDLLLPSINENCMLYSIVGCHKRATAALERLHLLEQSFQVTDQLMFATLGSQEGAFENVRMNYSGDQGQTIKHLLSSGVVRRVAFCCLSSPHGRRQQLAVSHEKGKVTILQLSALLKQADASKRKLTLTQLSSAPIACTVISLAANPCNEDCLAVCGLKECHILTFSSSGSTNEHIVVNPQLENGNYIKKAVWLPGSQTLLAVVTSDYVKIYDLAVDTYSPKYYYLVAVGKIRDCTFVYQDGNYNMLTFASSGYIYTQQLDQQSLAVHGDFYVTNTLELSHQHIKDIAGHIGGGGVSIYYSHTLQLLFYSYSCGRSFFSPLTNVSEGVKGIYHLDTNSASKSASKGPLQPLVQWTEVTGHPGLVYASMQTSNNPIILMITPERIYLQEIKAQSAKSRIMDVVGIRHAVAGVEKTTLLLLCEDGSLRIFSAQ |  | binds

Continued, values first:

Row | binding [1] | binding [2] | Molecule
4 |  | binds | 3377–4492 mCherry-tagged POE (domain or fragment, UniProt Q9VLT5 3377-4492) RMYRDGHSLDAHFRVVKRVCNIVSSKTGAPYNANPPMLSYDALVELTEHLRTCQEISQMRTGNWQKFCVVHEDALAMLMEIACYQLDDGVSPIIIQLLQAAVCNLPPPSGSKQAQPQPSTSSASGKLRTDREKSEDTDAYYSKFDPAQCGTFVHQIFRYACDALIIRFVRIFLLENNITQLRWQAHSFMTGLFEHANERQREKLLNIFWNLWPLVPTYGRRTAQFVDLLGYLTLSTRSITERLPEFVSRAVDVLRQQNELLCKHPNAPIYTTLESILQVNGYYLESEPCLVCNNPEVPMANIKLPSVKSDSKYTTTTMIYKLVQCHTISKLIVRIADLKRTKMVRTINVYYNNRSVQAVVELKNRPALWHKARSVSLQSAQTELKIDFPLPITACNLMIEFADFFETVSGSSENLQCPRCSAAVPAYPGVCGNCGENVFQCHKCRAINYDEKDPFLCHSCGFCKYAKFDFSMYARVCCAVDPIESAEDRVKTVSLIHSSLERADRNYRQLLTNKQMLELLIQKVAEHRSSDRMVEDNMASVHSTSQVNKIIQLLAQKYCVESRTSFEELSKIVQKVKACRSELVAYDRQQQDQPPVNPGSTTGAENPTTNRCYGCALASTEQCLTLLRAMAYNYDCRVCLYSQGLVSELAEHNLRRGTPLIQEEVRNLLVVLTKDNAEACMHLLQLVTTRVKNALMGSIPLISLEAAVHQEMTLLEVLLGQDDICWEYKLKVIFELFISNCRLPRGPVTAVLHPCLRIMQNLICPVLPGSKPNQKVATTDLCSMKMFEGNTVDYRAWLNSDRNHEYAAWSKRMPSNNQAKLKNAKDQNVAASGGSDAPPKSRREVRVAFLSEKYGKRWRERVLDKQRVIKPLVFNAKWIQPLLFNANSRFGRQLACSLLSSLSRTNERRQQALNMLTSFLKHVGEAGEASAEYLMLYKNMATEQPWLQYLVLKGVLSQISQLLAIEISKVHRMEEYSLSSDLSLGYALRQYVELLWLLLECPNIRRTYKTRMLGPVLESYLALRSLVVQRTRLIDDAQEKLLEMLEDMTSGTEEETRAFMEILIDTVEKTRMNDIKTPVFVFERLYSIIHPEEHDESEFYMTLEKDPQQEDFLQGR
5 |  | no binding | HA-tagged KCMF1 (Potassium channel modulatory factor 1) (protein, UniProt Q95RX5 1-599) MSRHEGVSCDSCLKSNFNGRRYKCLICYDYDLCADCYEDGVTSTRHLVEHPMQCILTRSDIELYFGGEMLASDQPQSFTCPYCKKMGFSDATLLEHVSAEHTETSLEVVCPVCAGLPGGEPNLVTDDFAGHLTLEHRQGPRELISFLDEPSAIRHGGGVRRIPGRTLGGPRTRRSNMHFSSSSGLSALSPSGRESVDPIAELLSQLSGVRRGGPPTSQLQQLQMQMQLDRQQVTASRQIDRLPRRAHPIVSTSNSNAAMAEVISGGAGGSGGSGAVGSGSGGGSGATAPPNLRTTEWPVTASFSTSASNHSQTQSSLAANSLNAREAIGTSSSAGSNVLGISVGVGGTANGNGGAGSSGVATGAGGAGQGGGQGGAAAGESFLLAQFMQPTFTEAEWAVVESMRADRSMFVQSLMLSMLCTEALDLNASDESLAKSDNVNKGQQQQQEDAEAEAQAETLLNNNADVEQQQQQQQLQPAMVRQVNQMQQTSPEDFVCDEYRYKNKKANTTQTSGTGGLGGAGATAAPGGGASGAGTKPTADRGIERRSGRPPPGEMATGSQQPQQQQQSTANPAASQQKYKQNASAATAAGNTNQIPDTR
